Laboratory results from publication PMC9911399, “Two distinct binding modes provide the RNA-binding protein RbFox with extraordinary sequence specificity”.
Substitutions are numbered along the chain they refer to; changes in the protein carry UniProt numbers. The list shows a part of the results.

T1: RBFOX1 RRM (Homo sapiens, UniProt Q9NWB1 109-208)
T1 sequence: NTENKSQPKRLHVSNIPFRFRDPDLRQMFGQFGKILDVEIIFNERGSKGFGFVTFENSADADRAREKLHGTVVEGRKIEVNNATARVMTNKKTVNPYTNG

B1: GAUGAAC (DNA:RNA)
RNA: GGGAGACCGGAAUUCAGAUUGUCCGAUGAACUUAAAUCCCGUCGUAGCCACCA
DNA 1: CAATCTGAATTCCGGTCTCCC
DNA 2: TGGTGGCTACGACGGGATT
B2: AACGAUC (DNA:RNA)
RNA: B1 RNA with G25A, U27C, A30U
DNA 1: CAATCTGAATTCCGGTCTCCC
DNA 2: TGGTGGCTACGACGGGATT
B3: AACUUAU (DNA:RNA)
RNA: B1 RNA with G25A, U27C, G28U, A29U, C31U
DNA 1: CAATCTGAATTCCGGTCTCCC
DNA 2: TGGTGGCTACGACGGGATT
B4: UGCCAGC (DNA:RNA)
RNA: B1 RNA with G25U, A26G, U27C, G28C, A30G
DNA 1: CAATCTGAATTCCGGTCTCCC
DNA 2: TGGTGGCTACGACGGGATT
B5: AAAGCCU (DNA:RNA)
RNA: B1 RNA with G25A, U27A, A29C, A30C, C31U
DNA 1: CAATCTGAATTCCGGTCTCCC
DNA 2: TGGTGGCTACGACGGGATT
B6: GGCAUGC (DNA:RNA)
RNA: B1 RNA with A26G, U27C, G28A, A29U, A30G
DNA 1: CAATCTGAATTCCGGTCTCCC
DNA 2: TGGTGGCTACGACGGGATT
B7: ACGAAAA (DNA:RNA)
RNA: B1 RNA with G25A, A26C, U27G, G28A, C31A
DNA 1: CAATCTGAATTCCGGTCTCCC
DNA 2: TGGTGGCTACGACGGGATT
B8: UAGAGUG (DNA:RNA)
RNA: B1 RNA with G25U, U27G, G28A, A29G, A30U, C31G
DNA 1: CAATCTGAATTCCGGTCTCCC
DNA 2: TGGTGGCTACGACGGGATT
B9: UAGAUGU (DNA:RNA)
RNA: B1 RNA with G25U, U27G, G28A, A29U, A30G, C31U
DNA 1: CAATCTGAATTCCGGTCTCCC
DNA 2: TGGTGGCTACGACGGGATT
B10: UUUUGCC (DNA:RNA)
RNA: B1 RNA with G25U, A26U, G28U, A29G, A30C
DNA 1: CAATCTGAATTCCGGTCTCCC
DNA 2: TGGTGGCTACGACGGGATT
B11: UAAAGCG (DNA:RNA)
RNA: B1 RNA with G25U, U27A, G28A, A29G, A30C, C31G
DNA 1: CAATCTGAATTCCGGTCTCCC
DNA 2: TGGTGGCTACGACGGGATT
B12: GAACACU (DNA:RNA)
RNA: B1 RNA with U27A, G28C, A30C, C31U
DNA 1: CAATCTGAATTCCGGTCTCCC
DNA 2: TGGTGGCTACGACGGGATT
B13: CCUCUGG (DNA:RNA)
RNA: B1 RNA with G25C, A26C, G28C, A29U, A30G, C31G
DNA 1: CAATCTGAATTCCGGTCTCCC
DNA 2: TGGTGGCTACGACGGGATT
B14: UUGCCGC (DNA:RNA)
RNA: B1 RNA with G25U, A26U, U27G, G28C, A29C, A30G
DNA 1: CAATCTGAATTCCGGTCTCCC
DNA 2: TGGTGGCTACGACGGGATT
B15: GGUGACA (DNA:RNA)
RNA: B1 RNA with A26G, A30C, C31A
DNA 1: CAATCTGAATTCCGGTCTCCC
DNA 2: TGGTGGCTACGACGGGATT
B16: GCACACC (DNA:RNA)
RNA: B1 RNA with A26C, U27A, G28C, A30C
DNA 1: CAATCTGAATTCCGGTCTCCC
DNA 2: TGGTGGCTACGACGGGATT
B17: AAUUGUU (DNA:RNA)
RNA: B1 RNA with G25A, G28U, A29G, A30U, C31U
DNA 1: CAATCTGAATTCCGGTCTCCC
DNA 2: TGGTGGCTACGACGGGATT
B18: AUAUGGA (DNA:RNA)
RNA: GGGAGACCGGAAUUCAGAUUGUCCAUAUGGAUUAAAUCCCGUCGUAGCCACCA
DNA 1: CAATCTGAATTCCGGTCTCCC
DNA 2: TGGTGGCTACGACGGGATT
B19: CGUCAGA (DNA:RNA)
RNA: B18 RNA with A25C, U26G, A27U, U28C, G29A
DNA 1: CAATCTGAATTCCGGTCTCCC
DNA 2: TGGTGGCTACGACGGGATT
B20: CAUGCCA (DNA:RNA)
RNA: B1 RNA with G25C, A29C, A30C, C31A
DNA 1: CAATCTGAATTCCGGTCTCCC
DNA 2: TGGTGGCTACGACGGGATT

biological target: T1, RBFOX1 RRM; assay: EMSA; HiTS-Eq, 1 nM pool, 10 min; buffer printed only for the single-RNA assays: 10 mM Tris pH 7.5, 150 mM NaCl, 3.4 mM EDTA, 0.001% NP-40, 30 C; conditions: tags: His6 N-terminal (pET28a); label: 5' 32P
Method in brief: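 These values rest on relative association constants, computed from read-count changes of each RNA species versus the control reaction and normalised to the cognate motif. Reads came from free RNA recovered by 8% native PAGE after purified RbFox RRM (wild type or mutant) at increasing concentrations was equilibrated for 10 min in 50 µL with 1 nM of a 5′-radiolabelled pool with 7 randomized nucleotides and DNA-annealed flanks.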

Binder | binding signal
B1 | 0.0116 KA relative to UGCAUGU
B2 | 0.0036 KA relative to UGCAUGU
B3 | 0.00219 KA relative to UGCAUGU
B4 | 0.0168 KA relative to UGCAUGU
B5 | 0.00419 KA relative to UGCAUGU
B6 | 0.627 KA relative to UGCAUGU
B7 | 0.000734 KA relative to UGCAUGU
B8 | 0.0201 KA relative to UGCAUGU
B9 | 0.0139 KA relative to UGCAUGU
B10 | 0.016 KA relative to UGCAUGU
B11 | 0.00635 KA relative to UGCAUGU
B12 | 0.00588 KA relative to UGCAUGU
B13 | 0.00948 KA relative to UGCAUGU
B14 | 0.0194 KA relative to UGCAUGU
B15 | 0.00992 KA relative to UGCAUGU
B16 | 0.00428 KA relative to UGCAUGU
B17 | 0.0119 KA relative to UGCAUGU
B18 | 0.000702 KA relative to UGCAUGU
B19 | 0.00954 KA relative to UGCAUGU
B20 | 0.00477 KA relative to UGCAUGU
